# Reference: the supplement of paper PMC3724861
# This is one part of the list.
# Tested on: T1, Caupolican (Caup) homeodomain DNA-binding domain
# T1 sequence: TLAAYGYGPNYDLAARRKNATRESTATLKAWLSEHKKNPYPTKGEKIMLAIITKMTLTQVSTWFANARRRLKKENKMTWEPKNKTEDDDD
# Test: PBM E-score (8-mer, recovered from the published 9-mer minima) (E-score (dimensionless, -0.5 to 0.5)); Drosophila protein; higher = stronger relative binding preference, active = 0.31 or more
# Description: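 Protein binding microarray (PBM): in vitro transcribed/translated Caupolican (Caup) homeodomain DNA-binding domain (residues 214-303) applied at 100 nM to a universal 8-mer PBM array (Agilent AMADID 015681). The 8-mer enrichment score (E-score, range -0.5 to 0.5) was computed, and each 9-mer score is the minimum E-score of its two constituent 8-mers. The E-score is the same for a 9-mer and its reverse complement; 0.31 is the stated binding threshold.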
row,Sequence,PBM E-score
1,AAGCTTCA,inactive: -0.0747
2,CTAGGACA,inactive: 0.241
3,CGAGTGTA,inactive: 0.0944
4,CGCGAGTC,inactive: -0.104
5,ACACGGAT,active: 0.339
6,CCTATAGG,inactive: -0.258
7,CTTGCTGA,inactive: -0.0673
8,CACCGCCC,inactive: -0.144
9,GTAAGGGA,inactive: 0.049
10,AAACGGGT,inactive: 0.00066
11,GCAAACCC,inactive: -0.106
12,ACGACATA,inactive: 0.299
13,AGCAGCGA,inactive: -0.00903
14,AACGTTGC,inactive: -0.0721
15,CTTAATCA,inactive: 0.013
16,AGGCTCCG,inactive: -0.182
17,CCGGCAGC,inactive: -0.216
18,ATACACAA,active: ≥ 0.341
19,AAACGGGG,inactive: -0.133
20,GCTGTAAA,inactive: 0.128
21,ATCGCAGC,inactive: -0.0341

row,Sequence,PBM E-score
1,CGTCTGGC,inactive: -0.112
2,CTACGCAG,inactive: -0.00799
3,TAGAAACA,inactive: 0.223
4,GATATTGA,inactive: 0.0675
5,TCGAGTCA,inactive: -0.006
6,CACCAACA,inactive: 0.0522
7,AAGAACTA,inactive: 0.0856
8,CATCTGTA,inactive: 0.204
9,AGTGGCTC,inactive: -0.0941
10,AGGTACAG,inactive: 0.146
11,TCACAACA,≥ 0.29
12,GTCGCCAA,inactive: -0.0201
13,GAATTTAA,inactive: 0.0882
14,CCGCCTGC,inactive: -0.291
15,CCACTCAA,≥ 0.0936
16,ATGTTGGG,inactive: 0.119
17,CATGGCGA,inactive: -0.0267
18,CTACCACA,inactive: 0.0978
19,ATATGACA,active: 0.336
20,CATAAAAC,inactive: 0.107
21,CCAGCTGA,inactive: -0.0549

row,Sequence,PBM E-score
1,TACAGCAA,inactive: 0.157
2,AACCCTTA,≥ 0.0757
3,AACTGAAC,inactive: 0.0211
4,CGGGTTCC,inactive: -0.19
5,AGGAAGGA,inactive: -0.0149
6,GCTAGGCA,inactive: -0.166
7,ACACCTTC,inactive: 0.079
8,AGGACGGC,inactive: -0.14
9,AGCCGCGG,inactive: -0.249
10,ATTCGACA,inactive: 0.24
11,GGGGGAGA,inactive: -0.262
12,ACATGCCA,active: 0.336
13,CCGCTCTC,inactive: -0.261
14,CTCGTCAG,inactive: 0.037
15,ATAATGAA,inactive: 0.136
16,CAGGCACC,inactive: -0.0964
17,AAGAGTCC,inactive: -0.0907
18,ATTTAGGA,inactive: 0.069
19,GCCTCTGA,inactive: -0.2
20,AGGACTAC,inactive: 0.0221
